The values that follow come from the RNAGym collection of RNA variant scans (doi:10.1093/nar/gkz1192).

Read counts are not given, so values of variants with three or more changes are uncertain.

B1: CPEB3 Ribozyme (parent)
chain: UAACAGGGGGCCACAGCAGAAGCGUUCACGUCGCAGCCCCUGUCAGAUUCUGGUGAAUCUGCGAAUUCUGCUGUAUAUCUC

The data set covers variants of B1. The experiment in a line: self-cleavage, relative activity (ratio to wild type); higher = more cleavage; in vitro, sequencing. Summed up:
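Relative activity compares each variant's cleaved/total read fraction with that of the unmutated ribozyme. To get these fractions, barcoded CPEB3 ribozyme libraries from rounds of error-prone PCR were transcribed with T7 RNA polymerase for 5 hours at 37°C and then given 15 min of DNase I treatment before EDTA was added. The RNAs were reverse transcribed with template switching and sequenced on Illumina, and DNA sequencing linked barcodes to variants. A minimum of 5 reads applied, and three batches were averaged.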
As to A2G U58C A65G, the self-cleavage was 0.16.

For A2U A18G A47G U72G, the self-cleavage is 0.34. In the case of A2U A13G A20G A35G U48C U80C, the self-cleavage worked out at 0.16. Consider A2U U41C U69C, for which the self-cleavage came to 0.51. The value for A3C A13U U51A was 0.72; that for A2U U43C A65G U78A was 0.26. Turning to A2U A13U U25C A47G U60C G63C, the self-cleavage came to 0.1. The result for A2G U60A U67A reads 0.14; that for A2U A18G A20U A45U A47G U67C, 0.07. The result for A2U A13G G16U A18U U80A reads 0.29; that for A2U A5G G36A C39A A75U, 0.38; that for A3C A20U U60C U72A A77G, 0.26. With A2U A3G A21U A57G A64U U69C U72A, the self-cleavage was found to be 0.07. On to A3G A13G A45C U72C, for which the self-cleavage was 0.41.

Take A2U A5U A20U A21G U43A: the self-cleavage is 0.08. Take A3C A13U A21G U26A U41C G42A A65G: the self-cleavage is 0.07. The result for A3C C11U U41A G63C reads 0.5. On to A2U U43C A47G, for which the self-cleavage was 0.27.

On to A3C G19A A45C U48C U80A, for which the self-cleavage turned out to be 0.57. The value for A2U U51C A57U was 0.43.

A2U A3U G19U U48C C71A U72C: the self-cleavage came out at 0.17. The value for A3C A21G U54C U78C was 0.79. In the case of A3G A5G G9A A35U U54C A65G U74A, the self-cleavage stood at 0.27. The result for A2U A21G U72C G73A reads 0.86. Take A3G A5U U58A: the self-cleavage came out at 0.46. The result for A3C U58C C62G reads 0.22.

For the variant A2U A13G U41C U69A G73A, the self-cleavage was determined as 0.7.

A2U A20G U41C G42A U51C: the self-cleavage came out at 0.06.

For the variant A3C C40U U49C U69C C71G U72C, the self-cleavage was 0.05.

Take A3C A18U U26C A45U: the self-cleavage was 0.4.

With A3C A15G A21U G70A, the self-cleavage was determined as 0.54. Take A2U C11U A45G: the self-cleavage amounted to 0.14. Regarding A2U A45G U69C, the self-cleavage is 0.24.

Turning to A2U A28U U43C U60A, the self-cleavage was 0.08. The result for A3C A5G A28G A47G U80C reads 0.77. Consider A2U U41C U60C, for which the self-cleavage came out at 0.41.

On to A2U U41C U72A, for which the self-cleavage amounted to 0.74. Consider A3G A5G U43A U74A, for which the self-cleavage turned out to be 1.05. The result for A3C C37U C50G U76A reads 0.38; that for A3G A13G A47U U54A A56G A57G U67A, 0.08; that for A3G A5U A64G U67C, 0.2. Consider A3G A13G A56U U80A, for which the self-cleavage is 0.81.

Regarding A3G A13C U25C G42A U43C U66C U80C, the self-cleavage turned out to be 0.47. The result for A2U A20U A45G A56G U72C reads 0.53; that for A2U A15U A18G A35U U41G U66A, 0.11; that for A2U A45U U49C, 0.03.

A3G A5U G9A A28G U60A U67A: the self-cleavage worked out at 0.36. The result for A2U C23U U26G A56U U74C reads 0.17; that for A2U A13C A18G A28U U72C, 0.32; that for A2U U41A G73A, 0.3. Regarding A3C A57C U72A, the self-cleavage turned out to be 0.27. The value for A2U A3G A18G U43G U51C was 0. The result for A3C U25C U72C U76C reads 0.27; that for A2U U49C U54G, 0.29. On to A2U A20G U51C U58G, for which the self-cleavage was 0.13. The result for A2U A5G G19U U41C U80C reads 0.08; that for A3C U26C U43C, 0.98; that for A2U C71U U78C, 0.49. The value for A3C A13G U25A U26C U80C was 0.7. The value for A3C U26C C29A U49C was 0.09; that for A2U A5U A18G U48C G70C U80C was 0.33. As for A2U A21G U54A, the self-cleavage amounted to 0.72. Consider A2U A13U G30A A57G A64U U72C U80C, for which the self-cleavage is 0.07. For the variant A3G A5C U26C U67C U80C, the self-cleavage was 0.36.

For A3G A5C A13U U26C C39U, the self-cleavage was 0.35. The result for A2G U54C U60C A65G reads 0.09; that for A2U U26A U49A U60A, 0.14; that for A2U A21U A28C C37G G55U U58C U69A, 0.07.

In the case of A2U C11G C34G C38A, the self-cleavage was determined as 0.13.

For the variant A2U A13U A15G U41A U49C, the self-cleavage turned out to be 0.41. The result for A2U A28G U41A U43C U54C A75U reads 0.12; that for A3G A13G C14A U60C U69C, 0.1; that for A3C U41C C81A, 1.17. For A3G A13G A15G U26C U76C U78A, the self-cleavage was 0.06. The result for A2U A3G U31A U67C reads 0.32.

A2U G19U A57G: the self-cleavage came to 0.26.

A2U U51C U60C U69A U78C: the self-cleavage came out at 0.32. In the case of A2U A18G C23U A56G A64U, the self-cleavage stood at 0.19.

Take A3C A18U U26A C29G U80C: the self-cleavage came to 0.3. As for A3C A20G U48C U60C U72C, the self-cleavage came to 0. The result for A3C A15G A35G U49C reads 0.48; that for A3G A13G C27A G46U U80G, 0.2; that for A2U A3G A21G A45G U51A G52U, 0.51.
